# Source: paper PMC4336329 (PLoS ONE, 2015)
# Hit rate of the full screen: of about 310,000 compounds, about 2,200 (0.71%) showed an effect of 50% or more. Effects have a minus sign here. Some of the results follow.
# Biological target: human ether-à-go-go-related gene (hERG) potassium channel (human, UniProt Q12809)
# Experiment: primary screen, population patch clamp on CHO cells stably expressing hERG
# Chain of human ether-à-go-go-related gene (hERG) potassium channel (Q12809 whole entry, looked up): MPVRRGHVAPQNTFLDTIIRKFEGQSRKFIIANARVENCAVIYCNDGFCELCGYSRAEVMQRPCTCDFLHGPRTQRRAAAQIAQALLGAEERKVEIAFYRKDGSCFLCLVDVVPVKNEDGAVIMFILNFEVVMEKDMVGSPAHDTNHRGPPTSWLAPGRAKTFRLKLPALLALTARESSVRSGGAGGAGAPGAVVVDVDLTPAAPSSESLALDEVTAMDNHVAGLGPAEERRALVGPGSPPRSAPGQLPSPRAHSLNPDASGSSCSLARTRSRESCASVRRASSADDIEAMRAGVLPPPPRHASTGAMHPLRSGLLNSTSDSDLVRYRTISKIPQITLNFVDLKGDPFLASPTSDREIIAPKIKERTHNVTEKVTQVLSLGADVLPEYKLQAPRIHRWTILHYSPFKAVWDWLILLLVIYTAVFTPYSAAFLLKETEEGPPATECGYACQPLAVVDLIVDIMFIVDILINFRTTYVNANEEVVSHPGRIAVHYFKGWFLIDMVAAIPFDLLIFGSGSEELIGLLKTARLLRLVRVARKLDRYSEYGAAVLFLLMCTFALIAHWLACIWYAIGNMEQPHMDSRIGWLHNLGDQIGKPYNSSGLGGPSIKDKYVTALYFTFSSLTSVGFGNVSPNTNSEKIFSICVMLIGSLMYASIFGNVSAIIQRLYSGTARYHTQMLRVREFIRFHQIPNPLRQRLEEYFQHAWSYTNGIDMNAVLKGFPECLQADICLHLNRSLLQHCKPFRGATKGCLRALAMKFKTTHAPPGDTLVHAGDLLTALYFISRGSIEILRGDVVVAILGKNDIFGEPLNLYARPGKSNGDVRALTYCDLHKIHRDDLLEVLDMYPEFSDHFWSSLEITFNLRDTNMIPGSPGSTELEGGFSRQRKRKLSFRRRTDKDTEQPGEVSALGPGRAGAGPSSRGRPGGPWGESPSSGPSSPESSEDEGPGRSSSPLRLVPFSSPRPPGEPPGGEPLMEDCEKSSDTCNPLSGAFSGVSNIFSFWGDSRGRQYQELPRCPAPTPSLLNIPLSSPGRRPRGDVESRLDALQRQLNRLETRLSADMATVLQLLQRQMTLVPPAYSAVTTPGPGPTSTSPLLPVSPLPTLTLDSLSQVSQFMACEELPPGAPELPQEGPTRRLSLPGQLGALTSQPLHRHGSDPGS
row,SMILES,"hERG current change (%, negative = inhibition) at 1uM [%]"
1,CCOc1cc2[nH]c(=S)n(Cc3ccc(C(=O)O)cc3)c(=O)c2cc1OCC,13.7
2,CCOC(=O)c1[nH]c2ccccc2c1N=CN(CC)CC,-33.1
3,CCNc1nc(NCC)n2c(SCC(=O)c3ccccc3F)nnc2n1,12.5
4,Cc1ccc2c(c1)C1CN(C)CCC1N2Sc1ccccc1[N+](=O)[O-] (centres unmarked),-4.1
5,COc1cccc(CNC(=O)CN(C)S(=O)(=O)c2ccc3c(c2)c(=O)n(C)c(=O)n3C)c1,17.3
6,CCOc1ccc(OCCOCCOc2ccccc2Cl)cc1,8.45
7,OCC[C@@H]1C[C@@H](O)[C@H](O)[C@@]2(OCc3ccccc32)O1,16
8,O=C(Cc1cccc2ccccc12)NNC(=O)c1ccc(Br)o1,8.02
9,CCOC(=O)c1c(-c2ccccc2)csc1/N=C/C1C(=O)CCCC1=O,1.64
10,CCOC(=O)C1CCN(Cc2nnc(-c3ccccc3C)o2)CC1.Cl,13.8
11,Cc1cc(OCC(=O)NC2CCN(Cc3ccccc3)CC2)c2c(C)c(C)c(=O)oc2c1,7.38
12,O=C(NCCCN1CCCC1=O)c1cc(S(=O)(=O)N2CCOCC2)ccc1Cl,10.8
13,CCOCCCN(C(=O)c1snc(C(N)=O)c1N)C(C(=O)NC(C)(C)C)c1ccc(Cl)cc1 (centres unmarked),3.97
14,CC(C)c1ccc(/C=N/N2CCCCC2)cc1.O=C(O)C(=O)O,-17
15,Cn1cc(/C=C/C(=O)N2CCCC(C(=O)c3cccc4ccccc34)C2)cn1 (centres unmarked),7.72
16,O=C1c2ccccc2NC(c2ccccc2F)N1NS(=O)(=O)c1ccccc1 (centres unmarked),8.67
17,O=C(NNC(=O)C(O)(c1ccccc1)c1ccccc1)C1CC1,14.2
18,Cl.Nc1ccc(-c2nc3c(ccc4ccccc43)[nH]2)cc1,16.3
19,COC(=O)/C=C1\SC(=NC(=O)c2ccc(OC)cc2)NC1=O,7.43
20,COc1ccc(N2CCN(C(=O)C3CCCN(S(=O)(=O)c4ccc(C)cc4)C3)CC2)cc1 (centres unmarked),2.69
21,Cc1nc(-c2ccccc2)sc1-c1ccn[nH]1,20.5
22,Cc1ccc(-n2nc3c(=O)n(CC(=O)NCc4ccccc4Cl)nc(C)c3c2C)cc1,16

row,SMILES,"hERG current change (%, negative = inhibition) at 1uM [%]"
1,COc1ccc(-c2nnc(NC(=O)c3cccs3)s2)c(OC)c1,15.4
2,CC(=O)Nc1ccc(S(=O)(=O)NCc2ccc(C(=O)N3CCOCC3)cc2)cc1,13.4
3,N#CN/C(=N\S(=O)(=O)c1ccccc1)c1ccccc1,15.9
4,Cc1ccc(/C=C/C(=O)N2CCN(S(=O)(=O)c3c(C)c(C)cc(C)c3C)CC2)o1,0.237
5,COc1ccc(Br)cc1/C=N/Nc1ccc(Cl)c(C(=O)O)c1,8.36
6,CSCC[C@H](NC(=O)C1CCN(S(=O)(=O)c2ccc(C)cc2)CC1)C(=O)NC1CCS(=O)(=O)C1 (some centres unmarked),5.8
7,Cc1nc(CC(=O)c2ccc(O)c(C)c2O)cs1,2.96
8,CCCCOC(=O)c1nnc(-c2ccccc2)o1,4.7
9,Cc1cc(C)c(S(=O)(=O)N2CCCC2=O)cc1N(C)S(C)(=O)=O,13.2
10,Cc1ccc(S(=O)(=O)N2CCOC2CNC(=O)C(=O)NCc2ccncc2)cc1 (centres unmarked),7.58
11,CCOC(=O)C1=C(C)N(C)C(=O)NC1c1ccccc1OC (centres unmarked),3.54
12,CC(C)C[C@H](CO)Nc1nc(Nc2cccc(Cl)c2)c2ncn(C(C)C)c2n1,13.6
13,CCN(C(=O)COC(=O)CNC(=O)c1sc2ccccc2c1Cl)C1CCCCC1,27.9
14,COc1ccccc1/C=C/C(=O)Nc1ccc(N2CCOCC2)cc1,19.2
15,CC(=O)OC1COC(N2CCc3ccccc32)C(OC(C)=O)C1OC(C)=O (centres unmarked),14.1
16,CCCCn1c(N)c(N(CCOC)C(=O)C2CCN(S(=O)(=O)c3ccc(C)cc3C)CC2)c(=O)[nH]c1=O,14.6
17,O=C(CCS(=O)(=O)c1ccc(Br)cc1)NCc1ccco1,12.1
18,CCc1nnc(NC(=O)CSc2nccn2-c2ccccc2)s1,-1.09
19,CN1CCN(c2ccc([N+](=O)[O-])cc2Cl)CC1,-3.54
20,Cc1occc1C(=O)NC1CCCc2ccccc21 (centres unmarked),3.86
21,O=C(Nc1ccc2c(c1)OCCO2)c1ccc(CN2CCOCC2)cc1,11.2
22,CCc1nnc(N2C(=N)SCC2=O)s1,4.71

row,SMILES,"hERG current change (%, negative = inhibition) at 1uM [%]"
1,CCCc1cc(C(=O)Nc2ccc(C(=O)c3ccc(F)cc3)cc2)n(C)n1,3.92
2,C#CCNC(=O)C1=C[C@@H](C2CC2)[C@H](CCCO)[C@@H](OCC)O1,16.1
3,Cc1ccc(S(=O)(=O)NCC23C=CC(O2)C2C(=O)N(c4ccccc4)C(=O)C23)cc1 (centres unmarked),4.09
4,COc1cccc(CNC(=O)C(=O)NCC2CCCO2)c1 (centres unmarked),-3.14
5,CCOc1cccc2cc(-c3csc(NC(=O)CCC(=O)NCCCN4CCC(C)CC4)n3)c(=O)oc12,-5.6
6,O=C(Nc1ccc(Br)cc1)c1cc2ccccn2n1,6.87
7,O=C1[C@H]2[C@@H](C(=O)N1c1cccc3ccccc13)C1(C(=O)c3ccccc3C1=O)N1CCC[C@@H]21,-21.9
8,CCCSc1cc(=O)n(-c2ccc(F)cc2)nc1C(=O)OCC,11.4
9,CN(CCCCCCCCCCN(C)C(=O)Oc1cccc([N+](C)(C)C)c1)C(=O)Oc1cccc([N+](C)(C)C)c1.[Br-],5.1
10,COc1ccc(NC(=O)CSc2nnc(-c3ccccn3)n2N)c(OC)c1,6.79
11,COc1cc(C(=S)N2CCOCC2)cc(OC)c1OC(=O)c1ccc([N+](=O)[O-])cc1[N+](=O)[O-],5.28
12,COc1ccc(NC(=O)COC(=O)[C@@H]2CCCN2C(=O)c2cccs2)c(OC)c1,9.78
13,Cc1cc(F)ccc1S(=O)(=O)Nc1ccccc1C(=O)Nc1ccccc1-c1nc2ccccc2[nH]1,10.7
14,CN1/C(=C\C(=O)c2cccnc2)Sc2ccccc21,-0.793
15,CCOC(=O)C1(CCOc2ccccc2)CCN(Cc2cc(OC)cc(OC)c2)CC1,-61.5
16,CCN(CC1CCCN(CCc2cccc(F)c2)C1)C(=O)c1cc(C)oc1C (centres unmarked),-2.34
17,Brc1ccc(CN2CC[C@H]3C=CCc4cccc(c43)C2)cc1,6.81
18,CC(=O)Oc1ccc(C(=O)NCCc2ccccc2)cc1,14.5
19,COC(=O)c1cn(NC(=O)C2CCCO2)c(=O)c2ccccc12 (centres unmarked),14.6
20,O=C(NC1CCCCC1)c1cccnc1C(=O)O,7.05
21,CCOC(=O)N1CCC(NS(=O)(=O)c2cc3c(cc2Cl)NC(=O)CO3)CC1,-5.26
22,CCc1cc(C(=O)NCC(c2cccs2)N2CCOCC2)sc1C (centres unmarked),1.52

row,SMILES,"hERG current change (%, negative = inhibition) at 1uM [%]"
1,O=C(Nc1ccc(NC(=O)C2CC2)nc1)c1ccccc1F,9.96
2,c1ccc(-n2cc(CN3CCCC3)c(-c3ccc4c(c3)OCO4)n2)cc1,-9.33
3,Cc1ccc(CSCc2ccc(C(=O)NCCCN3CCOCC3)o2)cc1,-21.2
4,O=C(Nc1cccc(-c2csc(Nc3ccccc3)n2)c1)c1ccccc1,0.795
5,COc1cccc(COC(=O)CCNC(=O)c2ccc(Cl)cc2)c1OC,16
6,COc1ccc(C(=O)N/C(=C\c2ccco2)C(=O)NC2CCS(=O)(=O)C2)cc1 (centres unmarked),12.4
7,Cc1ccc(-c2ccc(CCC(=O)O)n2C(C)C)cc1,12.4
8,COc1ccc(-n2nc(C(=O)NCC(=O)N3CCC4(CC3)OCCO4)c3ccccc3c2=O)c(OC)c1,2.3
9,O=C1CCCN1CCC1CCN(C2CC(=O)N(c3ccc(Cl)cc3)C2=O)CC1 (centres unmarked),-1.45
10,CC(C)N=C1NN=C(c2cccs2)C(CC(=O)O)S1 (centres unmarked),6.19
11,Cc1ccc(CSCC(=O)N(C)CC(=O)Nc2ccc(Br)cc2C)cc1,-8.88
12,CN1CCN(S(=O)(=O)c2ccc(N3CCN(S(=O)(=O)c4cccs4)CC3)nc2)CC1,19.1
13,COC(=O)C1=C(c2ccc(F)cc2F)C[C@@H]2CC[C@H]1N2C(=O)NC1Cc2ccccc2C1,5.46
14,COc1ccccc1NC(=O)COC(=O)c1ccccn1,13
15,Cc1ccc(-c2cc3ccccc3nc2N2CCCC2)cc1,13.2
16,COC(=O)CSc1nc2cc3c(cc2cc1C#N)OCO3,23.3
17,Nc1nc(SCc2c(F)cccc2Cl)[nH]c(=O)c1-c1ccccc1,1.7
18,O=C(c1cc2nc(-c3ccco3)cc(C(F)(F)F)n2n1)N1CCN(c2ccccc2)CC1,8.48
19,Cn1c(=O)c2c(ncn2CC(=O)Nc2cccc(S(=O)(=O)Nc3ccccc3F)c2)n(C)c1=O,15.7
20,CCOC(=O)C1C(C#N)=C(N)OC(C)=C1c1ccncc1 (centres unmarked),1.12
